According to PubChem BioAssay AID1347073 (National Center for Advancing Translational Sciences (NCATS), 2019):
Out of some 45,000 compounds screened, about 200 (0.44%) were called active. About 7% were inconclusive and are not listed. The call rests on the fitted dose curve; in most records, active means well fitted activation curve with a large enough effect; inconclusive means small, poorly fitted or top-dose-only effect; inactive means no such curve, though single readings can be large or run the other way. The list shows a part of the results.

Assay: qHTS of TDP-43 Inhibitors: NCGC Sytravon Library Screen; further: 0% is about no effect; nearly all actives have a fitted effect of over 55% in size
Conditions: yeast TDP-43 toxicity rescue, BacTiter-Glo growth, 24 h; series mostly up to 46.1 µM; growth rescue (activation): at the top concentration
Outline: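 TDP-43-expressing yeast, pregrown in raffinose, seeded at OD600 0.02 in galactose medium with compound for 24 hr at 30 deg C. Growth read by BacTiter-Glo luminescence, so rescue of toxicity appears as activation.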
In the case of O=C(COC(=O)c1cnccn1)NCCc1ccc(Cl)cc1Cl, the “growth rescue (activation)” value is reported as inactive: 8.57%.
In the case of CCCCNC(=S)NC(=O)c1ccccc1Br, the “growth rescue (activation)” value is reported as inactive: 20.2%.
In the case of CCOC(=O)C1(C)CCN1C(=O)c1ccc(C(=O)OC)cc1 (stereo not drawn), the “growth rescue (activation)” value is reported as inactive: 5.24%.
In the case of O=[N+]([O-])c1cccc(/C=N/N2CCN(c3ccccn3)CC2)c1, the “growth rescue (activation)” value is reported as inactive: 24%.
With CC(=O)c1ccc(N2CCN(C(=O)[C@H](C)NC(=O)c3ccccc3Cl)CC2)cc1 the “growth rescue (activation)” value was inactive: 13.7%.
With CC(=O)Nc1ccc(NC(=S)NC(=O)/C=C/c2ccco2)cc1 the “growth rescue (activation)” value was inactive: 7.24%.
With O=C1CC(c2cc(F)ccc2F)c2cc3c(cc2N1)CCC3 (stereo not drawn) the “growth rescue (activation)” value was inactive: -35.4%.
In the case of COc1ccc(OC)c(S(=O)(=O)N2CCC(C(=O)NC3CCCC3)CC2)c1, the “growth rescue (activation)” value is reported as inactive: 0.997%.
With COc1ccccc1N(CC(=O)NCc1ccccc1)C(=O)CCC(=O)Nc1nccs1 the “growth rescue (activation)” value was inactive: -6.82%.
In the case of O=C(/C=C/c1ccco1)Nc1ccc(S(=O)(=O)N2CCOCC2)cc1, the “growth rescue (activation)” value is reported as inactive: 5.58%.
With COc1ccc(NC(=O)CSc2nnc(-c3ccncc3)n2C)cc1 the “growth rescue (activation)” value was inactive: -15.2%.
With COC(=O)c1c(C(=O)OC)c(-c2ccc(C)cc2)n2c1CS(=O)C2 (stereo not drawn) the “growth rescue (activation)” value was inactive: 6.38%.
For O=C(CSc1ccc(Br)c2cccc(Cl)c12)Nc1ccc(S(=O)(=O)Nc2nccs2)cc1, the “growth rescue (activation)” value was inactive: 3.19%.
With COc1ccc(NC(=O)CSc2nnc(-c3cccnc3)n2Cc2ccco2)c(OC)c1 the “growth rescue (activation)” value was inactive: -13.8%.
With Cc1ccc(S(=O)(=O)N2CCN(CC(=O)N/N=C/c3ccco3)CC2)cc1 the “growth rescue (activation)” value was inactive: -1.91%.
In the case of COc1ccc(Nc2cc(=O)n(C3CCCCC3)c(=O)[nH]2)c(OC)c1, the “growth rescue (activation)” value is reported as inactive: 12.6%.
In the case of CCN(C(=O)COC(=O)c1cc(S(=O)(=O)N2CCOCC2)c(Cl)cc1Cl)C1CCS(=O)(=O)C1 (stereo not drawn), the “growth rescue (activation)” value is reported as inactive: 0.117%.
With COc1ccc(CNC(=O)CCNS(=O)(=O)c2ccc(Cl)cc2)cc1 the “growth rescue (activation)” value was inactive: 11.5%.
For O=C(O)c1ccc(/C=C/C(=O)c2ccc3c(c2)OCCCO3)cc1, the “growth rescue (activation)” value was inactive: 21%.
In the case of CS(=O)(=O)N1CCN(c2ccc([N+](=O)[O-])c(NCc3ccc(Cl)cc3)c2)CC1, the “growth rescue (activation)” value is reported as inactive: -12.1%.
With CC1(C)CC(=O)C(C=Nc2ccc(NC3=C(C#N)C(=O)CC(C)(C)C3)cc2)=C(O)C1 the “growth rescue (activation)” value was inactive: -4.67%.
With O=C(CSc1nc2nn(-c3ccccc3)c(=O)c-2c2n1CCCCC2)Nc1ccc(OC(F)F)cc1 the “growth rescue (activation)” value was inactive: 7.44%.
In the case of CSc1ccc(C(=O)C2CCCN(Cc3cccc4nccnc34)C2)cc1 (stereo not drawn), the “growth rescue (activation)” value is reported as inactive: 13.9%.
For COc1ccc(C2c3c(ccc4ccccc34)Oc3ncn4nc(-c5ccco5)nc4c32)cc1OC (stereo not drawn), the “growth rescue (activation)” value was inactive: 16.8%.
For O=C(Nc1cccc(S(=O)(=O)N2CCOCC2)c1)c1cc2ccccc2o1, the “growth rescue (activation)” value was inactive: -11.5%.
For COC(=O)c1ccc(-c2nc(O)c(C)s2)cc1, the “growth rescue (activation)” value was inactive: 8.82%.
For C=C(C)CN1C(=O)C2(OCCO2)c2ccccc21, the “growth rescue (activation)” value was inactive: -3.51%.
For COc1ccccc1NC(=O)C1CCN(S(=O)(=O)c2cccc3nonc23)CC1, the “growth rescue (activation)” value was inactive: 5.86%.
For COc1ccc(N(C(=O)CNC(=O)c2ccco2)C(C(=O)NC2CCCCC2)c2cccnc2)cc1 (stereo not drawn), the “growth rescue (activation)” value was inactive: 6.08%.
In the case of Cc1cc(C)nc(N/C(=N/S(=O)(=O)Cc2ccccc2)Nc2ccccc2)n1, the “growth rescue (activation)” value is reported as inactive: -5.29%.
With C=C(C)CSc1nc2sc3c(c2c(=O)n1Cc1ccccc1)CC(C)(CC)OC3 (stereo not drawn) the “growth rescue (activation)” value was inactive: 1.46%.
In the case of Cc1ccccc1N(CC(=O)NCc1ccccc1)C(=O)CCC(=O)Nc1nccs1, the “growth rescue (activation)” value is reported as inactive: -2.5%.
With COc1ccc(C(=O)OCC(=O)Nc2cccc(C(C)=O)c2)c(OC)c1OC the “growth rescue (activation)” value was inactive: -7.07%.
In the case of COc1ccc(CNC(=O)C(Cc2ccccc2)n2cccc2)cc1 (stereo not drawn), the “growth rescue (activation)” value is reported as inactive: 15.1%.
For O=C(COC(=O)C1COc2ccccc2O1)NC1CCCCC1 (stereo not drawn), the “growth rescue (activation)” value was inactive: 15.2%.
In the case of CCN(C(=S)Nc1cccc(C)c1)c1ccccc1, the “growth rescue (activation)” value is reported as inactive: 25.8%.
In the case of COc1ccc(/C=C(\NC(=O)c2ccco2)C(=O)NCc2ccco2)cc1, the “growth rescue (activation)” value is reported as inactive: -0.0375%.
With CCOc1cc(N2CCCC2)ccc1[N+](=O)[O-] the “growth rescue (activation)” value was inactive: 17.5%.
In the case of CCCCn1nc(CC(=O)NCCN(CC)CC)c2ccccc2c1=O, the “growth rescue (activation)” value is reported as inactive: 1.21%.
For CC(=O)Nc1ccc(C2=NNC(=NCC3CCCO3)SC2)cc1 (stereo not drawn), the “growth rescue (activation)” value was inactive: 8.51%.
In the case of Cn1c(CC(=O)Nc2ccccc2F)nnc1SCC(=O)Nc1nncs1, the “growth rescue (activation)” value is reported as inactive: -5.58%.
For COC(=O)CCc1sc(Nc2ccc(Br)cc2)nc1-c1ccc(OC)cc1, the “growth rescue (activation)” value was inactive: 29.9%.
For CCOC(=O)c1c(C)n(CC(O)CN(C)C)c2cc(Br)c(OC)cc12 (stereo not drawn), the “growth rescue (activation)” value was inactive: -3.44%.
In the case of OC(COCC1COc2ccccc2O1)CN1CCN(c2ccccn2)CC1 (stereo not drawn), the “growth rescue (activation)” value is reported as inactive: 9.63%.
With CN1CCN(Cc2nc3ccccc3c(=O)n2Cc2nc(-c3ccc([N+](=O)[O-])cc3)cs2)CC1 the “growth rescue (activation)” value was inactive: -17.4%.
In the case of O=C(CSc1nc2ccccc2s1)NNC(=S)Nc1ccc(Br)cc1, the “growth rescue (activation)” value is reported as inactive: 41.5%.
In the case of CCOc1cc(C2C3=C(CCCC3=O)N(C)C3=C2C(=O)CCC3)cc(Cl)c1O, the “growth rescue (activation)” value is reported as inactive: 6.55%.
For NC(=O)C1Cc2ccccc2CN1S(=O)(=O)c1ccc(Cl)s1 (stereo not drawn), the “growth rescue (activation)” value was inactive: 8.91%.
With Cc1cccc(C(=O)Nc2cccc(OCC(=O)O)c2)c1 the “growth rescue (activation)” value was inactive: 0.0277%.
In the case of O=C(COC(=O)c1ccc(O)cc1)Nc1ccc2c(c1)OCO2, the “growth rescue (activation)” value is reported as inactive: 8.01%.
With O=C(Nc1nnc([C@H]2C[C@H](O)[C@@H](CO)O2)s1)Nc1cccc(Cl)c1Cl the “growth rescue (activation)” value was inactive: 10.3%.
In the case of C=CCn1c(O)c(N=O)c2cc(C)ccc21, the “growth rescue (activation)” value is reported as inactive: 13.5%.
In the case of Cn1cccc1/C=N/N1CCN(Cc2ccc(Cl)cc2)CC1, the “growth rescue (activation)” value is reported as inactive: 0.628%.
